Test results as given in PubChem BioAssay AID1745853 (National Center for Advancing Translational Sciences (NCATS), 2022).
Some of the results follow. Shown are side measurements of this screen, not its main read-out; they come without a call.

Key:
Test in all cases: Primary Screen for Target Class Profiling of Small Molecule Inhibitors of Methyltransferases
[1] = target: Glycine N-methyltransferase (Homo sapiens) (UniProt Q14749); conditions: purified enzyme, MTase-Glo SAH luminescence; measured here: GNMT inhibition; at 40 µM; stronger effect = lower value
Method in brief: (§1)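 Each enzyme was assayed with SAM and its substrate. SAH formation detected by MTase-Glo luminescence; single-point 40 uM screen[…].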

[2] = target: Guanidinoacetate N-methyltransferase (Homo sapiens) (UniProt Q14353); conditions: purified enzyme, MTase-Glo SAH luminescence; measured here: GAMT inhibition; at 40 µM; stronger effect = lower value
Method in brief: as §1

[3] = target: Histamine N-methyltransferase (Homo sapiens) (UniProt P50135); conditions: purified enzyme, MTase-Glo SAH luminescence; measured here: HNMT inhibition; at 40 µM; stronger effect = lower value
Method in brief: as §1

[4] = target: Nicotinamide N-methyltransferase (Homo sapiens) (UniProt P40261); conditions: purified enzyme, MTase-Glo SAH luminescence; measured here: NNMT inhibition; at 40 µM; stronger effect = lower value
Method in brief: as §1

[5] = target: Phenylethanolamine N-methyltransferase (Homo sapiens) (UniProt P11086); conditions: purified enzyme, MTase-Glo SAH luminescence; measured here: PNMT inhibition; at 40 µM; stronger effect = lower value
Method in brief: as §1
On the % scale 0 is the no-effect control and ±100 the full control effect.

SMILES | activity change, negative = inhibition [1] | activity change, negative = inhibition [2] | activity change, negative = inhibition [3] | activity change, negative = inhibition [4] | activity change, negative = inhibition [5]
CC(C)CNC(=O)c1ccc2c(=O)n(CC(C)C)c3nn(CC(=O)Nc4cccc(F)c4)c(=O)n3c2c1 | 5.88% | 3.83% | 7.1% | 6.03% | 6.07%
Cc1ncc2c(c1CNC(=O)c1ccc(OC(F)F)cc1)CCNC2 | -6.02% | -1.82% | -4.29% | -3.6% | 5.65%
CC(=O)Nc1c2n(c3ccc(F)cc13)CC(C)(C(=O)NC1CCCC1)N(c1ccccc1C)C2=O (stereo not given) | 1.29% | 2.68% | -5.02% | 2.11% | -1.13%
O=C1COc2nccc(-c3ccccc3F)c2CN1Cc1cc(C(F)(F)F)cc(C(F)(F)F)c1 | -4.15% | 2.67% | 5.39% | -27.3% | -4.57%
Cc1ccc(Cl)cc1N1C(=O)c2cc3sccc3n2CC1(C)C(=O)NC1CCCC(C)C1C (stereo not given) | -3.33% | 2.35% | -0.027% | 3.41% | -1.55%
CC1(C(=O)NC2CCCCCCC2)Cn2c(ccc2-c2ccccc2)C(=O)N1Cc1cccnc1 (stereo not given) | -2.81% | -0.284% | -7.36% | -17.2% | -7.39%
O=C(c1cc(F)ccc1Cl)N1CCCC1c1nncn1Cc1ccncc1 (stereo not given) | -1.1% | 1.43% | -0.235% | -1.31% | -3.08%
CC1CCCC(NC(=O)C2(C)Cn3c(cc4occc43)C(=O)N2Cc2cccc(Cl)c2)C1C (stereo not given) | -3.07% | 4.29% | 3.47% | -7.8% | -1.24%
Cc1ccc(C)c(N2C(=O)CSc3c(c4ccccc4n3C)C2C(=O)NCc2ccc(F)cc2)c1 (stereo not given) | -1.37% | 2.56% | 9.96% | 8.37% | 8.39%
CN(Cc1ccc(-c2ccccc2)cc1)CC1CCCCC1 | -6.03% | -6.76% | -3.02% | -5.35% | -3.6%
CCCN(CC1CC1)c1nc(C)nc(Nc2c(Cl)cc(Cl)cc2Cl)c1Cl | 2.58% | 9.66% | 7.84% | -7.07% | -0.551%
O=C(CCl)Nc1cccc(NC2=NS(=O)(=O)c3ccccc32)c1 | -32% | -8.73% | 6.34% | -12.2% | -1.69%
CCN1C(=O)c2c(C(=O)NCc3cccc(Br)c3)ncn2CC1(C)C(=O)NC1CCCC1 (stereo not given) | -5.33% | 3.6% | 2.12% | -0.266% | -1.43%
O=C(Cn1nc2n(CCc3ccccc3)c(=O)c3ccccc3n2c1=O)Nc1ccccc1F | 2.88% | 0% | 9.4% | -0.571% | 3.42%
O=C(OCC1OC(Oc2ccc(O)cc2COC(=O)C2(O)C(O)CCC(=O)C2OC(=O)C2C=CCC2)C(OC(=O)C2C=CCC2)C(O)C1O)C1C=CCC1 (stereo not given) | -2.29% | 6.88% | 7.74% | -7.75% | 5.43%
Cc1cc(OC2CN(C(=O)c3ccccn3)C2)ccc1F | -3.65% | 1.93% | 1.2% | -16.8% | -0.727%
CCc1cc2c(cc3n2CC(C)(C(=O)NC2CCC(C)CC2)N(C2CCCC2)C3=O)s1 (stereo not given) | 3.44% | 2.39% | 5.62% | 2.41% | 1.45%
CCCCCNC(=O)c1ccc2c(=O)nc3c(-c4ccc(OC)cc4)n[nH]n3c2c1 | 3.89% | 0% | 8.35% | 5.28% | 1.34%
CN1CCN(C(=O)c2cc3cc(Cl)ccc3[nH]2)CC1 | 2.48% | 5.87% | 9.34% | -7.76% | 3.86%
Cc1ccc(C)c(CSc2nnc3n(C)c(=O)c4ccc(C(=O)NC5CCCCC5)cc4n23)c1 | -0.298% | 4.26% | 1.03% | -3.34% | 0.746%

SMILES | activity change, negative = inhibition [1] | activity change, negative = inhibition [2] | activity change, negative = inhibition [3] | activity change, negative = inhibition [4] | activity change, negative = inhibition [5]
CN1C(=O)CC[C@]2(C(=O)NCc3cc(F)cc(F)c3)CCCC[C@@H]12 | -0.825% | -0.226% | 2.53% | -3.04% | -3.19%
COc1cccc(S(=O)(=O)N2CC3(Cc4ccccc4C(=O)N3)C2)c1 | -5.83% | -5.98% | -3.76% | -21.7% | -6.93%
O=C(O)C1(Cc2cccc(Nc3nccs3)n2)CCC(Oc2cccc(Cl)c2F)CC1 (stereo not given) | -38.9% | -15.8% | -63.2% | -43.3% | -36.4%
CCCCCC(O)CCCC(=O)O (stereo not given) | -3.31% | 5.31% | -1.64% | -3.22% | 9.39%
CCC(O)(C(=O)OCc1ccccc1NC(=O)CCC(=O)O)C(C)O (stereo not given) | 1.98% | 2.49% | 7.58% | -12.4% | -6.84%
COc1ccc(C(=O)N(c2ccc(OC)cc2)S(=O)(=O)c2ccc3c(c2)n(C)c(=O)n3C)cc1 | -9.5% | 2.53% | -1.22% | -11.3% | -6.25%
Cc1noc2c(NCc3ccccc3)cc(-c3cccnc3)nc12 | -13% | -6.61% | -6.66% | -32.1% | -16.8%
O=C1CC(C(=O)O)C2(CCN(c3cc(C4CC4)ncn3)CC2)N1 (stereo not given) | -1.97% | -3.3% | 0.285% | -5.28% | -5.82%
COC(=O)c1ncn2c1C(=O)N(CCC1=CCCCC1)C(C)(C(=O)NCc1ccccc1)C2 (stereo not given) | 6.32% | 0% | 13.3% | 7.12% | 9.59%
C/C1=C\CCC2=C[C@@H](OC2=O)c2c(C)coc2C1 | -2.86% | -2.69% | 3.86% | -11% | -8.62%
COc1ccc(-c2cc3n(n2)CC(C)(C(=O)NCc2ccccc2OC)N(Cc2ccc(C)o2)C3=O)cc1 (stereo not given) | 1.83% | 3.85% | 7.64% | 2.5% | 1.39%
COc1ccc(OC)c2c1cc1n2CC(C)(C(=O)NC2CCCC2)N(Cc2cccs2)C1=O (stereo not given) | -2.74% | 3.49% | 1.33% | -1.82% | -0.761%
O=C(Cn1c(=O)oc2cc(S(=O)(=O)N3CCCC3)ccc21)N1CCN(c2ccccc2F)CC1 | 13.4% | 0.041% | 12.6% | 4.06% | 3.04%
CC(C)CCn1c(=O)c2ccccc2n2c(=O)n(CC(=O)Nc3ccc(Cl)cc3)nc12 | -2.66% | 2.72% | 1.23% | -5.12% | 0.401%
CCC(C(=O)NCc1ccc(OC(C)C)cc1)n1ccc2cc(S(=O)(=O)N3CCCCC3)ccc21 (stereo not given) | 4.74% | 1.92% | 1.24% | 2.91% | 1.93%
COCCN1CCCC(c2[nH]ccc2C(=O)NCCc2nc3ccccc3[nH]2)C1 (stereo not given) | -2.73% | -9.98% | -29.6% | -13.3% | -8.69%
CC(=O)OC1CC(C)(C(=O)O)CC2C3=CC(=O)C4C5(C)CCC(OC6OC(C(=O)O)C(O)C(O)C6OC6OC(C(=O)O)C(O)C(O)C6O)C(C)(C)C5CCC4(C)C3(C)CCC12C (stereo not given) | -2.21% | -4.27% | 5.13% | -13% | -9.03%
Cc1cccc(-c2[nH]ncc2-c2ccc(F)c(-c3cnn(CCO)c3)c2)n1 | -23.8% | -15.1% | -13.7% | -23.2% | -20.5%
COc1ccc(CCNC(=O)c2cc3n(n2)CC(C)(C(=O)NCc2ccc(C)cc2)N(C)C3=O)c(OC)c1 (stereo not given) | 5.79% | 1.37% | 7.36% | 5.57% | 5.81%
COC(=O)[C@H]1CN(C(=O)NC(C)C)CCN1C(=O)C1CCCCC1 | -5.38% | -8.58% | -1.96% | -12.6% | -6.76%

SMILES | activity change, negative = inhibition [1] | activity change, negative = inhibition [2] | activity change, negative = inhibition [3] | activity change, negative = inhibition [4] | activity change, negative = inhibition [5]
O=C(c1ccncc1)N1CCC2(CN[S+](=O)([O-])c3cnccc3O2)C1 (stereo not given) | -3.84% | -7.44% | -0.836% | -12.8% | -8.35%
CCCn1c(=O)c2ccc(C(=O)NC(C)CC)cc2n2c(=O)n(CC(=O)Nc3ccccc3F)nc12 (stereo not given) | -3.47% | -0.603% | 3.09% | -6.11% | -3.28%
COc1cc(N)c(Cl)cc1C(=O)OCCN1CCCCC1 | -6.94% | 4.2% | -0.061% | -6.86% | 3.51%
CCC(C)(O)C(O)C(=O)OCc1ccc(O[C@@H]2O[C@H](CO)[C@@H](O)[C@H](O)[C@H]2O)c(OC)c1 (stereo not given in full) | 4.77% | 4.79% | 12.7% | -8.99% | 6.56%
COc1ccccc1CNC(=O)C1c2c(n(C)c3ccccc23)SCC(=O)N1c1ccc(C)c(C)c1 (stereo not given) | 7.39% | 0.608% | 1.58% | 2.62% | 7.45%
O=C(NCc1cccs1)c1cc2nc(-c3ccco3)cc(C(F)(F)Cl)n2n1 | -11% | -30.8% | -0.04% | -46.4% | -24.6%
Cc1nc2ccc(Oc3ccc(F)cc3)cc2c(=O)n1C[C@H]1CCCN(C(C)C)C1 | 2.82% | 11.1% | -5.93% | -9.16% | 3.75%
COCC(=O)NC[C@H]1CCN(Cc2ccc(C)s2)C[C@H]1N(C)C | -1.46% | 0.573% | -1.28% | -3.28% | 1.27%
COCCS(=O)(=O)c1ncc(CN(C)Cc2ccsc2)n1Cc1ccccc1 | -4.6% | -6.14% | -1.3% | -15.4% | -5.1%
Cc1ccccc1CN1CCOc2cc([S+](=O)([O-])Nc3cccnc3)ccc2C1 | -6.33% | -2.35% | -0.574% | -7.74% | -7.14%
CC1(C(=O)NC2CCCCCC2)Cn2c(cc3occc32)C(=O)N1Cc1cccs1 (stereo not given) | 3.69% | 2.33% | 6.72% | -13.2% | -0.83%
CSc1cccc(N2C(=O)c3cc(C(C)(C)C)nn3CC2(C)C(=O)NC2CCCCC2)c1 (stereo not given) | -2.43% | -0.477% | -1.89% | 2.84% | -0.283%
N#Cc1ccc(C(=O)N2CCC3(CC2)N=C(N)c2c(F)ccc(F)c2N3)cn1 | -7.34% | -19.5% | -19.4% | -27.5% | -23.4%
Cc1cccc(Cn2nc3n(CCc4ccccc4)c(=O)c4ccccc4n3c2=O)c1 | 0.519% | 4.38% | 5.55% | 0.714% | 0.495%
CCC(C)NC(=O)c1ccc2c(=O)n(C(C)C)c3nn(CC(=O)c4cccc(OC)c4)c(=O)n3c2c1 (stereo not given) | -1.49% | 2.84% | -0.019% | -0.856% | 0.344%
CCCn1c(=O)c2ccc(Cl)cc2n2c(SCC(=O)Nc3ccccc3F)nnc12 | 1.26% | -1.32% | 12.9% | -4.7% | -2.54%
CC(NC(=O)Cn1ccc2cc(S(=O)(=O)N3CCCC3)ccc21)c1ccccc1 (stereo not given) | 3.48% | 0% | 0.188% | 0.189% | -1.07%
c1ccc(-c2ccc(CN3CCOC[C@H](Oc4cnccn4)C3)cc2)cc1 | -5.78% | -4.76% | -6.74% | -12.3% | -8.89%
CC1(C(=O)NC2CCCCCCC2)Cn2c(cc3sccc32)C(=O)N1CCCc1ccccc1 (stereo not given) | 4.65% | 0% | 7.57% | 7.56% | 3.39%
Cn1ncc2c(-c3ccc([S+](C)(=O)[O-])cc3)cc(C(=O)N3CCCC3)nc21 | -12.5% | -10% | -18.2% | -12.1% | -20.3%
